Source: PubChem BioAssay (NCATS)
Several values for one entry are separate records, joined by “and”; a condition that tells them apart may be missing. Equal entries are not always repeated. The shares of active, inactive and inconclusive entries below differ from those in the screen. For some of these results: Where the call is inconclusive, the potency comes from a doubtful curve fit. Activity calls are given as the source filed them. Unless noted, calls come from the whole dose curve; as a rule, active = well fitted curve in the direction sought with a large enough effect; inconclusive = small, poorly fitted or top-dose-only effect, or another doubt; inactive = no such curve, though single readings can be large; an effect the other way counts as inactive or inconclusive.

What was measured:
[1] = Primary qHTS for inhibitors of nuclear receptor binding SET domain protein 2 (NSD2) in an isogenic RCH-ACV NSD2 p.E1099K mutant (9B) (AID 1645876); note: nearly all actives have a fitted effect of over 70% in size
[2] = Primary qHTS for inhibitors of nuclear receptor binding SET domain protein 2 (NSD2) in an RCH-ACV wild type WT cells (2C) (AID 1645877); conditions: activity change, negative = cell killing: at 44.9 µM (top of the series); note: nearly all actives have a fitted effect of over 70% in size; for activity change, negative = cell killing: % is set by controls: 0 for no effect and ±100 for the full control effect
HEK293 = assay: Cytotoxic Profiling of Annotated Libraries Using Quantitative High-Throughput Screening (AID 1296008); conditions: Five cell lines viability, CellTiter-Glo ATP luminescence, 48-72 h; max response: hits give low values; note: nearly all actives have a fitted effect of over 60% in size
Summary of the method: (§1)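 Cytotoxicity was measured as CellTiter-Glo ATP luminescence, read after 10 min at room temperature. Compound treatment of the cells lasted 48 or 72 hr at 37 degrees Celsius in a qHTS format.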

NIH3T3 = assay: as above; conditions: Five cell lines viability, CellTiter-Glo ATP luminescence, 48-72 h; max response: hits give low values
Summary of the method: as §1

CAOV3 = assay: Primary qHTS to identify gynecologic anti-cancer compounds using libraries of approved drugs and bioactive compounds (AID 1345084); conditions: Gynecologic cancer cell panel viability, ATPlite luminescence, 48 h; series mostly up to 57.5 µM; note: nearly all actives have a fitted effect of over 55% in size; for activity change, negative = cytotoxicity: % is set by controls: 0 for no effect and ±100 for the full control effect
Summary of the method: (§2)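 In this quantitative HTS, cell killing is estimated from loss of ATP-dependent luciferase light. Cells see five compound concentrations over a 48 h exposure.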

SKOV3 = assay: as above; conditions: Gynecologic cancer cell panel viability, ATPlite luminescence, 48 h; series mostly up to 57.5 µM
Summary of the method: as §2

[3] = P-glycoprotein substrates identified in KB-8-5-11 adenocarcinoma cell line, qHTS therapeutic library screen (AID 1346987); note: nearly all actives have a fitted effect of over 65% in size
Summary of the method: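 KB-8-5-11, a colchicine-selected P-gp-overexpressing KB-3-1 subline, was grown without colchicine for the assay. Cells were seeded at 500 cells/well, dosed in concentration-response and incubated 72 h at 37 degree C, 5% CO2. Viability was read by CellTiter-Glo luminescence.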

[4] = tested on: Zika virus NS2B-NS3 protease (unlinked complex); assay: Primary screen GU Rhodamine qHTS for Zika virus inhibitors: Unlinked NS2B-NS3 protease assay (AID 1347159); note: nearly all actives have a fitted effect of over 60% in size
Summary of the method: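 Noncovalent NS2B hydrophilic domain–NS3 protease domain complex (25 nM) preincubated 15 min at room temperature with compounds (up to 114 microM) in 10 mM Tris-HCl pH 8.0, 0.01% Tween 20; 1.5 microM Rhodamine110 substrate added, fluorescence change over 15 min fitted to Hill equation.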

C33A = assay: Primary qHTS to identify gynecologic anti-cancer compounds using libraries of approved drugs and bioactive compounds (AID 1345084); conditions: Gynecologic cancer cell panel viability, ATPlite luminescence, 48 h; series mostly up to 57.5 µM; note: nearly all actives have a fitted effect of over 55% in size; for activity change, negative = cytotoxicity: % is set by controls: 0 for no effect and ±100 for the full control effect
Summary of the method: as §2

JEG-3 = assay: as above; conditions: Gynecologic cancer cell panel viability, ATPlite luminescence, 48 h; series mostly up to 57.5 µM
Summary of the method: as §2

OV90 = assay: as above; conditions: Gynecologic cancer cell panel viability, ATPlite luminescence, 48 h; series mostly up to 57.5 µM
Summary of the method: as §2

PA-1 = assay: as above; conditions: Gynecologic cancer cell panel viability, ATPlite luminescence, 48 h; series mostly up to 57.5 µM
Summary of the method: as §2

[5] = tested on: Zika virus NS2B-NS3 protease (linked construct); assay: Primary screen NINDS Rhodamine qHTS for Zika virus inhibitors (AID 1347160); note: nearly all actives have a fitted effect of over 55% in size
Summary of the method: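 Purified linked NS2B-NS3 protease (NS2B hydrophilic domain joined to NS3 protease by flexible linker), 25 nM in 10 mM Tris-HCl pH 8.0, 0.01% Tween 20. Compounds titrated, 15 min preincubation at room temperature; 1.5 microM Rhodamine110 substrate, FITC fluorescence change over 15 min.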

[6] = target: Cytochrome P450 2D6 (Homo sapiens) (UniProt P10635); assay: Cytochrome P450 family 2 subfamily D member 6 (CYP2D6) small molecule antagonists: luciferase biochemical (cell-free) qHTS assay (AID 1645840; active = well fitted curve in the direction sought with a large enough effect in the repeat runs; inconclusive = weak or mixed curves; inactive = no such curve, though single readings can be large; an effect the other way counts as inactive or inconclusive; note: nearly all actives have a fitted effect of over 55% in size)
Summary of the method: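 P450-Glo luminescent screen: recombinant CYP2D6 enzyme–proluciferin substrate mix preincubated with compound 10 min at room temperature, then NADPH regeneration added for 1 h at room temperature. Detection reagent added for 20 min; luciferin light read as relative luminescence units.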

Hek293T = assay: Primary qHTS to identify gynecologic anti-cancer compounds using libraries of approved drugs and bioactive compounds (AID 1345084); conditions: Gynecologic cancer cell panel viability, ATPlite luminescence, 48 h, control line for the selectivity index; series mostly up to 57.5 µM; note: nearly all actives have a fitted effect of over 55% in size; for activity change, negative = cytotoxicity: % is set by controls: 0 for no effect and ±100 for the full control effect
Summary of the method: as §2

[7] = Primary fluorescence-based thiol-reactive (MSTI) qHTS assay for identification of artifact compounds. (AID 1845221);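 note: thiol-reactive compounds lower the probe fluorescence signal; nearly all actives have a fitted effect of over 65% in size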
Summary of the method: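 One-hour, room-temperature, dark incubation of compound with 4 uM MSTI in PBS (pH 7.4, 2% DMSO) precedes a fluorescence read at 525 nm excitation, 598 nm emission; Hill-equation fitting yields concentration-response values.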

[8] = Primary redox qHTS assay for identification of artifact compounds. (AID 1845223)
Summary of the method: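 Amplex Red (25 uM) and HRP (250 mU/mL) in HBSS, with compounds for 15 min, then 250 uM DTT for 30 min, room temperature, dark. Fluorescence 525/598 nm read; normalized to DMSO and 10 uM DA3003; Hill fit.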

Tov-21-G = assay: Primary qHTS to identify gynecologic anti-cancer compounds using libraries of approved drugs and bioactive compounds (AID 1345084); conditions: Gynecologic cancer cell panel viability, ATPlite luminescence, 48 h; activity change, negative = cytotoxicity: at 57.5 µM (top of the series); note: nearly all actives have a fitted effect of over 55% in size
Summary of the method: as §2

CASKI = assay: as above; conditions: Gynecologic cancer cell panel viability, ATPlite luminescence, 48 h; activity change, negative = cytotoxicity: at 57.5 µM (top of the series)
Summary of the method: as §2
Potency is the fitted concentration of half-maximal effect; tags give direction and shape of the fitted curve.

UniProt P10635, sequence (P10635 whole entry, looked up): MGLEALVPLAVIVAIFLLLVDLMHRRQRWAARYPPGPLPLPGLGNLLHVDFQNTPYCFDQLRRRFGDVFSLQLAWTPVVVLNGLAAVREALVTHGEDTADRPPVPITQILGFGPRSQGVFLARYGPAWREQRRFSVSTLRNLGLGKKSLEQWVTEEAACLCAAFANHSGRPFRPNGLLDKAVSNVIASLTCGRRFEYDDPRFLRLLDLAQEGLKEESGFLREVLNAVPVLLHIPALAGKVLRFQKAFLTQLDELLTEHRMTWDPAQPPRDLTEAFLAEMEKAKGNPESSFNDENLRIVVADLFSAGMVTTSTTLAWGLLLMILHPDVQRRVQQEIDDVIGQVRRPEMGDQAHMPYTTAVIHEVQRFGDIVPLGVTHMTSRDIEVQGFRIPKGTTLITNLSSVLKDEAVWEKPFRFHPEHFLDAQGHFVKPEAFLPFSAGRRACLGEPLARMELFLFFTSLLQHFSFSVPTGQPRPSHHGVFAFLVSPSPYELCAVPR

Cc1ccccc1CN1CCn2c1nc1c(c2=O)CN(Cc2ccccc2)CC1
inactive: Potency [1] | Potency [2] | Potency (CAOV3) | Potency (SKOV3)
inconclusive: Potency (HEK293) 29.1 µM [inhibitor, single point] | Potency (NIH3T3) 23.1 µM [inhibitor, partial curve, poor fit]

C/C=C/C=C/C=C/C(=O)O[C@@H]1C=C(CO)C(O)(C(=O)OC)[C@@]2(C)CCCC(C)(C)C12 (some centres undefined)
inactive: Potency [3] | max response (NIH3T3) 4.09% | Potency (C33A) | Potency (CAOV3) | Potency (JEG-3)
inconclusive: Potency [4] 10 µM [inhibitor, full curve] | Potency [1] 14.2 µM [inhibitor, single point] | Potency [2] 10 µM [inhibitor, single point] | Potency (HEK293) 3.17 µM [inhibitor, single point] | Potency (SKOV3) 2.51 µM [rising, full curve, poor fit]

CCN(CCNC(=O)Nc1ccccc1Br)c1cccc(C)c1
inactive: Potency (CAOV3) | Potency (OV90) | Potency (PA-1)
inconclusive: Potency [3] 20.6 µM [inhibitor, single point] | Potency [1] 14.5 µM [inhibitor, partial curve] | Potency [2] 23 µM [inhibitor, single point] | Potency (HEK293) 23.1 µM [inhibitor, single point] | Potency (NIH3T3) 10.3 µM [inhibitor, partial curve, poor fit] | Potency (C33A) 8.91 µM [cytotoxic, single point] | Potency (JEG-3) 14.1 µM [rising, partial curve]

O=C(Nc1ccc(-c2ccc(Cl)c(Cl)c2)cc1)C1=C(O)c2ccccc2S(=O)(=O)N1
active: Potency [4] 2.82 µM | Potency [5] 3.98 µM
inconclusive: Potency [6] 21.3 µM [inhibitor, partial curve, poor fit] | Potency [1] 25.8 µM [inhibitor, single point] | Potency [2] 20.5 µM [inhibitor, single point] | Potency (HEK293) 29.1 µM [inhibitor, single point] | Potency (NIH3T3) 23.1 µM [inhibitor, single point] | Potency (CAOV3) 0.562 µM [rising, full curve, poor fit] | Potency (Hek293T) 31.6 µM [cytotoxic, single point] | Potency (PA-1) 15.8 µM [cytotoxic, partial curve]

C=C1C(=O)OC2/C=C(\CO)CC/C=C(\C=O)CC(OC(=O)CC(C)C)C12 (centres undefined)
inconclusive: Potency [3] 11.4 µM [inhibitor, single point] | Potency [4] 39.8 µM [inhibitor, partial curve] | Potency [8] 14.7 µM [activator, partial curve, poor fit] | Potency (NIH3T3) 12.8 µM [inhibitor, single point] | Potency (CAOV3) 28.2 µM [cytotoxic, single point] | Potency (PA-1) 28.2 µM [cytotoxic, single point] | Potency (SKOV3) 12.6 µM [cytotoxic, partial curve] | Potency (Tov-21-G) 8.91 µM [cytotoxic, partial curve]
active: Potency [2] 2.26 µM | Potency [7] 16.5 µM | Potency (HEK293) 12.8 µM

CCC(CN)=C(c1ccccc1)c1ccccc1
inconclusive: Potency [1] 23.7 µM [inhibitor, single point] | Potency [2] 23.7 µM [inhibitor, single point] | Potency (HEK293) 23.7 µM [inhibitor, single point] | Potency (OV90) 39.8 µM [cytotoxic, single point]
inactive: outcome (NIH3T3) | Potency (CAOV3) | Potency (CASKI)

CNC(=O)c1cccc2cc(Oc3ccnc4cc(OCC5(N)CC5)c(OC)cc34)ccc12
inconclusive: Potency [3] 20.6 µM [inhibitor, single point] and 29.1 µM [inhibitor, single point] | Potency [8] 4.23 µM [activator, full curve] | Potency (HEK293) 29.1 µM [inhibitor, single point] | Potency (NIH3T3) 20.6 µM [inhibitor, single point] | Potency (OV90) 28.2 µM [cytotoxic, single point] | Potency (PA-1) 12.6 µM [cytotoxic, single point] | Potency (SKOV3) 20 µM [cytotoxic, partial curve, poor fit]
inactive: Potency [7] | Potency (C33A)

CCC(C)C(=O)OC1CC(O)C23C4OCC5(C(O)CC2C1(C)C(O)O4)C3C(=O)C(O)C1(C)C(O)(c2ccoc2)CC2OC251 (centres undefined)
active: Potency (HEK293) 1.72 µM | Potency (NIH3T3) 3.06 µM | Potency (CAOV3) 3.98 µM | Potency (OV90) 1.26 µM | Potency (PA-1) 3.16 µM | Potency (SKOV3) 3.16 µM
inactive: Potency [3]
inconclusive: Potency (C33A) 7.94 µM [cytotoxic, partial curve, poor fit] | Potency (Hek293T) 8.91 µM [cytotoxic, single point] | Potency (Tov-21-G) 5.01 µM [cytotoxic, partial curve]

CCN(CC)Cc1cccc(/C=C/c2nc3ccc(F)cc3c(=O)n2-c2ccccc2Cl)n1
inconclusive: Potency [3] 18.4 µM [inhibitor, single point] | Potency [6] 26.8 µM [inhibitor, single point] | Potency (HEK293) 20.6 µM [inhibitor, single point] | Potency (NIH3T3) 29.1 µM [inhibitor, single point] | Potency (OV90) 22.4 µM [cytotoxic, partial curve, poor fit] | Potency (PA-1) 28.2 µM [cytotoxic, single point] | Potency (Tov-21-G) 39.8 µM [cytotoxic, single point]
inactive: Potency [4] | Potency (CAOV3) | Potency (Hek293T)
active: Potency (SKOV3) 20 µM

C[C@@H]1C[C@H]2OC(=O)[C@@]3(C)CCC[C@](C)(C23)[C@@]1(O)CCC1=CC(=O)OC1O (some centres undefined)
inactive: max response (HEK293) -8.41% | outcome (NIH3T3) | Potency (CAOV3) | Potency (Tov-21-G)
inconclusive: Potency [4] 5.01 µM [inhibitor, full curve] | Potency [8] 26.1 µM [activator, partial curve, poor fit] | Potency (SKOV3) 1 µM [rising, full curve, poor fit]

CN(C)CCOc1cc(NS(=O)(=O)c2c(Cl)cc(C(F)(F)F)cc2Cl)ccc1Cl
inconclusive: Potency (HEK293) 29.1 µM [inhibitor, single point]
active: Potency [4] 5.62 µM
inactive: outcome (NIH3T3) | Potency (CAOV3) | Potency (Hek293T)

Cc1c(NC(=O)c2cc3c(s2)CCCC3)cccc1-c1cn(C)c(=O)c(Nc2ccc(C3C(=O)N(C)CCN3C)cc2)n1 (centres undefined)
inconclusive: Potency [3] 25.9 µM [inhibitor, partial curve, poor fit] | Potency [1] 16.6 µM [inhibitor, partial curve] | Potency [2] 2.3 µM [inhibitor, partial curve, poor fit] and 9.34 µM [inhibitor, full curve] | Potency [7] 11.9 µM [inhibitor, partial curve] | Potency (HEK293) 13 µM [inhibitor, partial curve] | Potency (NIH3T3) 32.6 µM [inhibitor, partial curve, poor fit] | Potency (CAOV3) 35.5 µM [cytotoxic, single point] | Potency (CASKI) 39.8 µM [cytotoxic, single point] | Potency (JEG-3) 25.1 µM [cytotoxic, single point] | Potency (OV90) 25.1 µM [cytotoxic, single point] | Potency (PA-1) 39.8 µM [cytotoxic, single point] | Potency (SKOV3) 25.1 µM [cytotoxic, partial curve, poor fit] | Potency (Tov-21-G) 28.2 µM [cytotoxic, partial curve, poor fit]
